# Laboratory results as given in patent US8067379B2, “Sulfur compounds as inhibitors of hepatitis C virus NS3 serine protease” (Schering Corporation, priority 2004, dated 2011).
# Starred links: 1 amine or outer side, 2 acyl side, 3 side chain; linkers in the order of their positions; H or OH if unused. Non-standard residues stand in square brackets, D forms with d. Residues, ends and D or L forms follow the SMILES beside them. *: point of attachment. Pro(3R,4S-CMe2) = CC1(C)[C@@H]2[C@@H](C(=O)O)NC[C@@H]21; Gly(1-Me-cHex) = CC1([C@H](N)C(=O)O)CCCCC1; X2 = O=C(C(=O)[*:2])C(CC1CC1)N[*:1]; X3 = CC(C)(C)S(=O)(=O)CC1(N*)CCCCC1; Phg = N[C@H](C(=O)O)c1ccccc1; CO = O=C([*:1])[*:2]
# Target: Recombinant heterodimeric HCV NS3/NS4A protease (strain 1a) (Hepatitis C virus genotype 1a, UniProt P27958)
# Test: Spectrophotometric assay for HCV serine protease inhibitory activity (chromogenic ester substrates)
# Format: biochemical
# Conditions: Table 3A; class symbols; read-out: Ki* Range
row,Structure (SMILES),Ki
1,"CN(C)C(=O)[C@@H](NC(=O)CNC(=O)C(=O)C(CC1CC1)NC(=O)[C@@H]1[C@@H]2[C@H](CN1C(=O)[C@@H](NC(=O)NC1(CS(=O)(=O)C(C)(C)C)CCCCC1)C1(C)CCCCC1)C2(C)C)c1ccccc1 (stereo partly drawn) [Compound 415] ({X3-CO}-[Gly(1-Me-cHex)][Pro(3R,4S-CMe2)][X2]G[Phg]-NMe2)",75 to 250 nM
2,C=C(F)CNC(=O)C(=O)C(CCC)NC(=O)[C@@H]1[C@@H]2[C@H](CN1C(=O)[C@@H](NC(=O)NC1(CS(=O)(=O)C(C)(C)C)CCCCC1)C1(C)CCCCC1)C2(C)C (some centres unmarked) [Compound 416],< 75 nM
3,C=CCNC(=O)C(=O)C(CCC1CC1)NC(=O)[C@@H]1[C@@H]2[C@H](CN1C(=O)[C@@H](NC(=O)NC1(CS(=O)(=O)C(C)(C)C)CCCCC1)C1(C)CCCCC1)C2(C)C (some centres unmarked) [Compound 417],< 75 nM
4,C=CCNC(=O)C(=O)C(CCC)NC(=O)[C@@H]1C[C@@H](C(F)(F)F)CN1C(=O)[C@@H](NC(=O)NC1(CS(=O)(=O)C(C)(C)C)CCCCC1)C1CCCCC1 (some centres unmarked) [Compound 418],< 75 nM
5,CC1([C@H](NC(=O)NC2(CS(=O)(=O)C(C)(C)C)CCCCC2)C(=O)N2C[C@H]3[C@@H]([C@H]2C(=O)NC(CCC2CC2)C(=O)C(=O)NCC2CC2)C3(C)C)CCCCC1 (some centres unmarked) [Compound 419],< 75 nM
6,C=C(F)CNC(=O)C(=O)C(CCC1CC1)NC(=O)[C@@H]1[C@@H]2[C@H](CN1C(=O)[C@@H](NC(=O)NC1(CS(=O)(=O)C(C)(C)C)CCCCC1)C1(C)CCCCC1)C2(C)C (some centres unmarked) [Compound 420],< 75 nM
7,C=C(F)CNC(=O)C(=O)C(CC1CC1)NC(=O)[C@@H]1[C@@H]2[C@H](CN1C(=O)[C@@H](NC(=O)NC1(CS(=O)(=O)C(C)(C)C)CCCCC1)C1(C)CCCCC1)C2(C)C (some centres unmarked) [Compound 421],< 75 nM
8,C#CCCC(NC(=O)[C@@H]1[C@@H]2[C@H](CN1C(=O)[C@@H](NC(=O)NC1(CS(=O)(=O)C(C)(C)C)CCCCC1)C1(C)CCCCC1)C2(C)C)C(=O)C(=O)NCC1CCC1 (some centres unmarked) [Compound 422],< 75 nM
9,C=CCNC(=O)C(=O)C(CC1CC1)NC(=O)[C@@H]1[C@@H]2[C@H](CN1C(=O)[C@@H](NC(=O)NC1(CS(=O)(=O)C(C)(C)C)CCCCC1)C1(C)CCCCC1)[C@@]2(C)COCc1ccccc1 (some centres unmarked) [Compound 423],< 75 nM
10,C=CCNC(=O)C(=O)C(CCCC)NC(=O)[C@@H]1[C@@H]2[C@H](CN1C(=O)[C@@H](NC(=O)NC1(CS(=O)(=O)C(C)(C)C)CCCCC1)C1(C)CCCCC1)C2(C)C (some centres unmarked) [Compound 424],< 75 nM
11,C=CCNC(=O)C(=O)C(CC1CC1)NC(=O)[C@@H]1[C@@H]2[C@H](CN1C(=O)[C@@H](NC(=O)NC1(CS(=O)(=O)C34CC5CC(CC(C5)C3)C4)CCCCC1)C1(C)CCCCC1)C2(C)C (some centres unmarked) [Compound 425],< 75 nM
12,C=CCNC(=O)C(=O)C(CCCC)NC(=O)[C@@H]1[C@@H]2[C@H](CN1C(=O)[C@@H](NC(=O)NC1(CS(=O)(=O)C(C)(C)C)CCCCC1)C1CCCCC1)C2(C)C (some centres unmarked) [Compound 426],< 75 nM
13,C=C(F)CNC(=O)C(=O)C(CC1CC1)NC(=O)[C@@H]1[C@@H]2[C@H](CN1C(=O)[C@@H](NC(=O)NC1(CS(=O)(=O)C(C)(C)C)CCCCC1)C(C)(C)C)C2(C)C (some centres unmarked) [Compound 427],< 75 nM
14,C#CCCC(NC(=O)[C@@H]1[C@@H]2[C@H](CN1C(=O)[C@@H](NC(=O)NC1(CS(=O)(=O)C(C)(C)C)CCCCC1)C1(C)CCCCC1)C2(C)C)C(=O)C(=O)NC1CCCC1 (some centres unmarked) [Compound 428],< 75 nM
15,C=CCNC(=O)C(=O)C(CC(F)F)NC(=O)[C@@H]1[C@@H]2[C@H](CN1C(=O)[C@@H](NC(=O)NC1(CS(=O)(=O)C(C)(C)C)CCCCC1)C1(C)CCCCC1)C2(C)C (some centres unmarked) [Compound 429],< 75 nM
16,C=CCNC(=O)C(=O)C(CC(F)F)NC(=O)[C@@H]1[C@@H]2[C@H](CN1C(=O)[C@@H](NC(=O)NC1(CS(=O)(=O)C(C)(C)CC)CCCCC1)C1(C)CCCCC1)C2(C)C (some centres unmarked) [Compound 430],< 75 nM
17,C=CCNC(=O)C(=O)C(CCCC)NC(=O)[C@@H]1[C@@H]2[C@H](CN1C(=O)[C@@H](NC(=O)NC1(CS(=O)(=O)C3(C)CCC4CC3C4(C)C)CCCCC1)C1CCCCC1)C2(C)C (some centres unmarked) [Compound 431],< 75 nM
18,C=CCNC(=O)C(=O)C(CCC1CC1)NC(=O)[C@@H]1[C@@H]2[C@H](CN1C(=O)[C@@H](NC(=O)NC1(CS(=O)(=O)C(C)(C)C)CCCCC1)C(C)(C)C)C2(C)C (some centres unmarked) [Compound 432],< 75 nM
19,C=CCNC(=O)C(=O)C(CC1CCC1)NC(=O)[C@@H]1[C@@H]2[C@H](CN1C(=O)[C@@H](NC(=O)NC1(CS(=O)(=O)C(C)(C)C)CCCCC1)C1(C)CCCCC1)C2(C)C (some centres unmarked) [Compound 433],< 75 nM
20,C=CCNC(=O)C(=O)C(CCC)NC(=O)[C@@H]1[C@@H]2[C@H](CN1C(=O)[C@@H](NC(=O)NC1(CS(=O)(=O)C(C)(C)C)CCCCC1)C1(C)CCCCC1)C2(C)C (some centres unmarked) [Compound 434],< 75 nM
21,CC1([C@H](NC(=O)NC2(CS(=O)(=O)C(C)(C)C)CCCCC2)C(=O)N2C[C@H]3[C@@H]([C@H]2C(=O)NC(CC2CCC2)C(=O)C(=O)NC2CC2)C3(C)C)CCCCC1 (some centres unmarked) [Compound 435],< 75 nM
22,CCCCC(NC(=O)[C@@H]1[C@@H]2[C@H](CN1C(=O)[C@@H](NC(=O)NC1(CS(=O)(=O)C(C)(C)C)CCCCC1)C1(C)CCCCC1)C2(C)C)C(=O)C(=O)NC1CC1 (some centres unmarked) [Compound 436],< 75 nM

row,Structure (SMILES),Ki
1,CCCC(NC(=O)[C@@H]1[C@@H]2[C@H](CN1C(=O)[C@@H](NC(=O)NC1(CS(=O)(=O)C(C)(C)C)CCCCC1)C1(C)CCCCC1)C2(C)C)C(=O)C(=O)NC1CC1 (some centres unmarked) [Compound 437],< 75 nM
2,C#CCNC(=O)C(=O)C(CC1CCC1)NC(=O)[C@@H]1[C@@H]2[C@H](CN1C(=O)[C@@H](NC(=O)NC1(CS(=O)(=O)C(C)(C)C)CCCCC1)C1(C)CCCCC1)C2(C)C (some centres unmarked) [Compound 438],< 75 nM
3,C#CCNC(=O)C(=O)C(CCC)NC(=O)[C@@H]1[C@@H]2[C@H](CN1C(=O)[C@@H](NC(=O)NC1(CS(=O)(=O)C(C)(C)C)CCCCC1)C1(C)CCCCC1)C2(C)C (some centres unmarked) [Compound 439],< 75 nM
4,CC1([C@H](NC(=O)NC2(CS(=O)(=O)C(C)(C)C)CCCCC2)C(=O)N2C[C@H]3[C@@H]([C@H]2C(=O)NC(CC2CC2)C(=O)C(=O)NCCC2CC2)C3(C)C)CCCCC1 (some centres unmarked) [Compound 440],< 75 nM
5,C=CCNC(=O)C(=O)C(CC(F)F)NC(=O)[C@@H]1[C@@H]2[C@H](CN1C(=O)[C@@H](NC(=O)NC1(CS(=O)(=O)C(C)(C)CCC)CCCCC1)C1(C)CCCCC1)C2(C)C (some centres unmarked) [Compound 441],< 75 nM
6,C=CCNC(=O)C(=O)C(CCC)NC(=O)[C@@H]1[C@@H]2[C@H](CN1C(=O)[C@@H](NC(=O)NC1(CS(=O)(=O)C(C)(C)C)CCCCC1)C1CCC(F)(F)CC1)C2(C)C (some centres unmarked) [Compound 442],< 75 nM
7,C=CCNC(=O)C(=O)C(CC1CC1)NC(=O)[C@@H]1[C@@H]2[C@H](CN1C(=O)[C@@H](NC(=O)NC1(CS(=O)(=O)C(C)(C)C)CCCCC1)C1CCC(F)(F)CC1)C2(C)C (some centres unmarked) [Compound 443],< 75 nM
8,C#CCNC(=O)C(=O)C(CCCC)NC(=O)[C@@H]1[C@@H]2[C@H](CN1C(=O)[C@@H](NC(=O)NC1(CS(=O)(=O)C(C)(C)C)CCCCC1)C1(C)CCCCC1)C2(C)C (some centres unmarked) [Compound 444],< 75 nM
9,C#CCCC(NC(=O)[C@@H]1[C@@H]2[C@H](CN1C(=O)[C@@H](NC(=O)NC1(CS(=O)(=O)C(C)(C)C)CCCCC1)C1(C)CCCCC1)C2(C)C)C(=O)C(=O)NCC#C (some centres unmarked) [Compound 445],< 75 nM
10,C#CCCC(NC(=O)[C@@H]1[C@@H]2[C@H](CN1C(=O)[C@@H](NC(=O)NC1(CS(=O)(=O)C(C)(C)C)CCCCC1)C1(C)CCCCC1)C2(C)C)C(=O)C(=O)NCCC1CC1 (some centres unmarked) [Compound 446],< 75 nM
11,C=CCNC(=O)C(=O)C(CC1CC1)NC(=O)[C@@H]1[C@@H]2[C@H](CN1C(=O)[C@@H](NC(=O)NC1(CS(=O)(=O)C(C)(C)C)C3CCCC31)C(C)(C)C)C2(C)C (some centres unmarked) [Compound 447],< 75 nM
12,CCCC(C)(C)S(=O)(=O)CC1(NC(=O)N[C@H](C(=O)N2C[C@H]3[C@@H]([C@H]2C(=O)NC(CC2CC2)C(=O)C(=O)NC2CC2)C3(C)C)C2(C)CCCCC2)CCCCC1 (some centres unmarked) [Compound 448],< 75 nM
13,CC(C)S(=O)(=O)CC1(NC(=O)N[C@H](C(=O)N2C[C@H]3[C@@H]([C@H]2C(=O)NC(CC2CC2)C(=O)C(=O)NC2CC2)C3(C)C)C2(C)CCCCC2)CCCCC1 (some centres unmarked) [Compound 449],< 75 nM
14,C=CCNC(=O)C(=O)C(CCCC)NC(=O)[C@@H]1[C@@H]2[C@H](CN1C(=O)[C@@H](NC(=O)NC1(CS(=O)(=O)C(C)(C)C)CCCCC1)C1CCC(F)(F)CC1)C2(C)C (some centres unmarked) [Compound 450],< 75 nM
15,CC1([C@H](NC(=O)NC2(CS(=O)(=O)C(C)(C)C)CCCCC2)C(=O)N2C[C@H]3[C@@H]([C@H]2C(=O)NC(CC2CC2)C(=O)C(=O)NC2CC2)C3(C)C)CCCC1 (some centres unmarked) [Compound 451],< 75 nM
16,C=CCNC(=O)C(=O)C(CC1CC1)NC(=O)[C@@H]1C[C@@H](C(F)(F)F)CN1C(=O)[C@@H](NC(=O)NC1(CS(=O)(=O)C(C)(C)C)CCCCC1)C1CCCCC1 (some centres unmarked) [Compound 452],< 75 nM
17,C=CCNC(=O)C(=O)C(CC1CC1)NC(=O)[C@@H]1[C@@H]2[C@H](CN1C(=O)[C@@H](NC(=O)NC1(CS(=O)(=O)C(C)(C)C)CCC(F)(F)CC1)C1(C)CCCCC1)C2(C)C (some centres unmarked) [Compound 453],< 75 nM
18,CC1([C@H](NC(=O)NC2(CS(=O)(=O)C(C)(C)C)CCCCC2)C(=O)N2C[C@H]3[C@@H]([C@H]2C(=O)NC(CC2CC2)C(=O)C(=O)NC/C=C/C2CC2)C3(C)C)CCCCC1 (some centres unmarked) [Compound 454],< 75 nM
19,C=CCNC(=O)C(=O)C(CC1CC1)NC(=O)[C@@H]1[C@@H]2[C@H](CN1C(=O)[C@@H](NC(=O)NC1(CS(=O)(=O)C(C)(C)C)CCCCC1)C1(C)CCCCC1)[C@@]2(C)COc1ccccc1 (some centres unmarked) [Compound 456],75 to 250 nM
20,CC1([C@H](NC(=O)NC2(CS(=O)(=O)C(C)(C)C)CCCCC2)C(=O)N2C[C@H]3[C@@H]([C@H]2C(=O)NC(CCCCF)C(=O)C(=O)NC2CC2)C3(C)C)CCCCC1 (some centres unmarked) [Compound 457],< 75 nM
21,CC1([C@H](NC(=O)NC2(CS(=O)(=O)C(C)(C)C)CCCCC2)C(=O)N2C[C@H]3[C@@H]([C@H]2C(=O)NC(CCCC(F)F)C(=O)C(=O)NC2CC2)C3(C)C)CCCCC1 (some centres unmarked) [Compound 459],< 75 nM
22,C=CCNC(=O)C(=O)C(CC1CC1)NC(=O)[C@@H]1C[C@@H](C(F)(F)F)CN1C(=O)[C@@H](NC(=O)NC1(CS(=O)(=O)C(C)(C)C)CCCCC1)C1(C)CCCCC1 (some centres unmarked) [Compound 460],< 75 nM
